We go through 49 molecules from PubChem BioAssay AID1508624 (National Center for Advancing Translational Sciences (NCATS), 2021).

Out of some 48,000 compounds screened, about 120 (0.25%) were called active. About 4% were inconclusive and are not listed. The call rests on the fitted dose curve; in most records, active means well fitted activation curve with a large enough effect; inconclusive means small, poorly fitted or top-dose-only effect, or another doubt; inactive means no such curve, though single readings can be large or run the other way. Some of the results follow.

A short description of the experiment: Primary qHTS for Identification of Small Molecule Activators of Huntingtin-Antisense Promoter Activity. Further: nearly all actives have a fitted effect of over 55% in size. As to conditions: HEK293 HTT-AS promoter firefly luciferase reporter, 24 h; series mostly up to 57.5 µM; activity change, positive = activation: at the top concentration. The method in brief: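 Firefly luciferase readout (Dual-Glo, 10 min RT) after 24 h, 37 °C compound exposure (final up to 57.5 uM) of HEK293 reporter cells cultured 24 h beforehand; PTC124 at 50 uM final as control inhibitor; activity scaled vehicle 0%, zero RLU -100%.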
(In general: In qHTS, concentration-response curves come from the screen itself.)
In the case of `COc1ccccc1N1CCN(c2ncc3c(n2)CCN(Cc2ccccc2C)C3)CC1`, the “activity change, positive = activation” value was inactive: -6.92%.

With `Cc1ccc(OCC(=O)OCc2cc(=O)n3ccsc3n2)cc1C`, the “activity change, positive = activation” value is inactive: 11.1%.

Consider `Cc1nn(-c2ccccc2)c(-n2cccc2)c1C(=O)NCCCN1CCN(c2ccccc2F)CC1`, for which the “activity change, positive = activation” value was inactive: -33.1%.

As for `COc1ccc(OC(=O)c2cc(-c3ccc4c(c3)OCCO4)on2)cc1`, the “activity change, positive = activation” value is inactive: 3.91%.

Consider `CCOc1ccc(NC(=O)Cn2c(=O)nc(-c3ccccc3)c3ccccc32)cc1`, for which the “activity change, positive = activation” value is inactive: 5.3%.

On to `Cc1ccc(C)c(NC(=O)CSc2cn(CC(=O)N3CCCCC3)c3ccccc23)c1`, for which the “activity change, positive = activation” value is inactive: -22.1%.

Consider `CCOC(=O)c1ccc(NC(=O)CCc2c(C)nc3cc(-c4ccc(OC)cc4OC)nn3c2C)cc1`, for which the “activity change, positive = activation” value is inactive: -14.7%.

Turning to `CC(C)Oc1ccc(C(=O)N2CCC(c3nc4ccccc4s3)CC2)cc1`, the “activity change, positive = activation” value is inactive: -7.7%.

In the case of `COc1cc(C(=O)Nc2ccc(-c3nc4cc(C)c(C)cc4o3)cc2)cc(OC)c1OC`, the “activity change, positive = activation” value was inactive: 24.8%.

Regarding `CC1=C(C(=O)NCc2cccc(Cl)c2)C2(CCCCCC2)OC1=O`, the “activity change, positive = activation” value is inactive: -34%.

Consider `CCOC(=O)c1c(C)oc2nc(C)nc(NCCc3ccc(OCC)cc3)c12`, for which the “activity change, positive = activation” value is inactive: -32%.

On to `CCC(C)NC(=O)Cn1c(=O)n(-c2cc(OC)cc(OC)c2)c(=O)c2ccccc21` (centres undefined), for which the “activity change, positive = activation” value was inactive: -23.6%.

Take `CC(=O)Nc1ccc(S(=O)(=O)N2CCC(n3c(C)nc4cccnc43)CC2)cc1`: the “activity change, positive = activation” value was inactive: -20.5%.

On to `O=C(Cn1c(=O)n(Cc2ccco2)c(=O)c2sc3ccccc3c21)Nc1ccc(F)cc1F`, for which the “activity change, positive = activation” value is inactive: -11.5%.

For the molecule `COc1ccc(C(=O)N(Cc2ccco2)Cc2ccccc2F)cc1Cl`, the “activity change, positive = activation” value was inactive: -36.8%.

With `COc1ccc(-c2cc(C(F)(F)F)c(C#N)c(SCC(=O)Nc3cccc(C)c3)n2)cc1`, the “activity change, positive = activation” value was inactive: -6.79%.

As to `O=C(NCC(c1ccco1)S(=O)(=O)c1ccc(Cl)cc1)c1ccc(C(F)(F)F)cc1` (centres undefined), the “activity change, positive = activation” value is inactive: -23.5%.

As to `Cc1ccc(Cn2c(SCc3ccc(C(=O)O)cc3)nc3cccnc32)cc1`, the “activity change, positive = activation” value is inactive: 9.14%.

Take `COc1cccc(CC(=O)Nc2c(C(=O)N3CCN(c4ccccc4)CC3)oc3ccccc23)c1`: the “activity change, positive = activation” value was inactive: -34.2%.

Consider `O=c1[nH]c(=O)n(C2CCCO2)cc1F` (centres undefined), for which the “activity change, positive = activation” value was inactive: -0.821% [at 116 µM, percent change from vehicle, -100% = no light].

`CCOc1ccc(CCNC(=O)c2ccc3nc(N4CCC(C)CC4)sc3c2)cc1OCC`: the “activity change, positive = activation” value is inactive: -77%.

`CCN(CCCNC(=O)CN1N=C(c2ccccc2)CCC1=O)c1cccc(C)c1`: the “activity change, positive = activation” value was inactive: -20.7%.

On to `CCC(C)n1c(=O)c2sccc2n2c(CCCC(=O)Nc3ccc(F)cc3)nnc12` (centres undefined), for which the “activity change, positive = activation” value was inactive: -13.5%.

As to `CSc1ncc(Cl)c(C(=O)Nc2c(C(=O)c3ccc(C)cc3)oc3ccccc23)n1`, the “activity change, positive = activation” value was inactive: -25.9%.

As for `CC1CCN(S(=O)(=O)c2ccc3[nH]ccc3c2)CC1`, the “activity change, positive = activation” value was inactive: -18.2%.

Turning to `O=C1NC(NS(=O)(=O)c2ccccc2)(C(F)(F)F)C(=O)N1CCc1ccccc1` (centres undefined), the “activity change, positive = activation” value was inactive: -17.8%.

In the case of `CCOc1ccc(-c2cc3nc(C4CCN(C(=O)OC(C)(C)C)CC4)c(C(=O)Nc4cccc(Cl)c4C)cn3n2)cc1`, the “activity change, positive = activation” value is inactive: 14.3%.

With `Cn1cc(CCCC(=O)NCc2ccc(F)cc2)c2ccccc21`, the “activity change, positive = activation” value is inactive: -11.3%.

In the case of `CC(NCCC(c1ccccc1)c1ccccc1)c1ccccc1` (centres undefined), the “activity change, positive = activation” value was inactive: -28.8%.

Consider `O=C(CCC(=O)N1CCOc2ccccc21)NCc1cccs1`, for which the “activity change, positive = activation” value was inactive: 7.37%.

For the molecule `Cc1ccc2[nH]c3c(=O)n(CC(=O)N4CCN(c5ccccc5F)CC4)ncc3c2c1`, the “activity change, positive = activation” value is inactive: -8.04%.

Regarding `O=S(=O)(NCCc1nnc2ccc(SCc3cccc(Cl)c3)nn12)c1ccccc1`, the “activity change, positive = activation” value is inactive: -25.6%.

In the case of `CC(=O)N1CCCc2cc(S(=O)(=O)N3CCCC(C(=O)Nc4ccc(F)cc4F)C3)ccc21` (centres undefined), the “activity change, positive = activation” value was inactive: -50.1%.

Turning to `COc1ccc(Cn2c(CNC(=O)Cc3ccc(OC)c(OC)c3)nc3cccnc32)cc1`, the “activity change, positive = activation” value was inactive: -15.4%.

As to `Cc1ccc(NC(=O)CSc2nc(=O)n(Cc3ccncc3)c3c2CCC3)cc1Cl`, the “activity change, positive = activation” value was inactive: -11.5%.

Turning to `CCOc1cc(CNC(=O)CSc2n[nH]c(-c3ccccc3)n2)cc(OCC)c1OCC`, the “activity change, positive = activation” value is inactive: -31.7%.

Turning to `COc1ccc(Nc2ncc(C(=O)Nc3cccc(OC)c3)c3ccccc23)cc1`, the “activity change, positive = activation” value was inactive: 5.31%.

As to `Cc1ccc(Cl)cc1N(C)C(=O)c1sc2nc3n(c(=O)c2c1C)CCCC3`, the “activity change, positive = activation” value is inactive: -22.1%.

As for `COC(=O)c1cc(NC2(c3ccccc3)C(=O)c3ccccc3C2=O)cc(C(=O)OC)c1`, the “activity change, positive = activation” value was inactive: 3.59%.

In the case of `Cc1ccccc1-n1c(SCC(=O)c2ccccc2)nnc1-c1ccc(F)cc1`, the “activity change, positive = activation” value was inactive: -26.3%.

With `Cc1ccc(NC(=O)NC(C)c2c(-n3cccc3)sc(C)c2C)c(C)c1` (centres undefined), the “activity change, positive = activation” value was inactive: -34.6%.

With `COc1ccc(NC(=O)c2ccco2)cc1NC(=O)c1cccc(C)c1OC`, the “activity change, positive = activation” value is inactive: -17%.

For the molecule `O=C(Nc1ccccc1)C1CCN(S(=O)(=O)c2ccc3c(c2)CCCN3C(=O)C2CCC2)CC1`, the “activity change, positive = activation” value is inactive: -16.8%.

As to `COc1ccc(Cn2c(CCC(=O)Nc3cc(C)cc(C)c3)nc3cccnc32)cc1`, the “activity change, positive = activation” value was inactive: -28.1%.

For the molecule `Cc1ccc2c(CN3CCN(c4ccc(Cl)cc4)CC3)cc(=O)oc2c1`, the “activity change, positive = activation” value was inactive: -5.86%.

As to `Cc1ccc(CNC(=O)CCCCCn2c(=O)c3sccc3n(CC(=O)C(C)(C)C)c2=O)cc1`, the “activity change, positive = activation” value was inactive: -10.3%.

As for `OC1C(O)C(O)C(O)C(O)C1O` (centres undefined), the “activity change, positive = activation” value was inactive: -7.79%.

As to `Cc1ccc(-c2nc3c4ccccc4n(CC(=O)N4CCN(c5ccc(F)cc5)CC4)c(=O)n3n2)cc1`, the “activity change, positive = activation” value was inactive: -7.45%.

Take `Cc1cc(C)cc(Nc2cc(C)nc3nc(-c4ccco4)nn23)c1`: the “activity change, positive = activation” value was inactive: -25.6%.
